Measured values published in article PMC4336329 (PLoS ONE, 2015).
Among all 310,000 compounds or so, about 14,000 (4.5%) showed an effect of 50% or more. Effects have a minus sign here. This is one part of the list.

What follows are molecules tested against human ether-à-go-go-related gene (hERG) potassium channel (human, UniProt Q12809) (assay: primary screen, population patch clamp on CHO cells stably expressing hERG).
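Further: peak tail current of the secondary pulse compared with the same well before compound.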

Chain of human ether-à-go-go-related gene (hERG) potassium channel (Q12809 whole entry, looked up): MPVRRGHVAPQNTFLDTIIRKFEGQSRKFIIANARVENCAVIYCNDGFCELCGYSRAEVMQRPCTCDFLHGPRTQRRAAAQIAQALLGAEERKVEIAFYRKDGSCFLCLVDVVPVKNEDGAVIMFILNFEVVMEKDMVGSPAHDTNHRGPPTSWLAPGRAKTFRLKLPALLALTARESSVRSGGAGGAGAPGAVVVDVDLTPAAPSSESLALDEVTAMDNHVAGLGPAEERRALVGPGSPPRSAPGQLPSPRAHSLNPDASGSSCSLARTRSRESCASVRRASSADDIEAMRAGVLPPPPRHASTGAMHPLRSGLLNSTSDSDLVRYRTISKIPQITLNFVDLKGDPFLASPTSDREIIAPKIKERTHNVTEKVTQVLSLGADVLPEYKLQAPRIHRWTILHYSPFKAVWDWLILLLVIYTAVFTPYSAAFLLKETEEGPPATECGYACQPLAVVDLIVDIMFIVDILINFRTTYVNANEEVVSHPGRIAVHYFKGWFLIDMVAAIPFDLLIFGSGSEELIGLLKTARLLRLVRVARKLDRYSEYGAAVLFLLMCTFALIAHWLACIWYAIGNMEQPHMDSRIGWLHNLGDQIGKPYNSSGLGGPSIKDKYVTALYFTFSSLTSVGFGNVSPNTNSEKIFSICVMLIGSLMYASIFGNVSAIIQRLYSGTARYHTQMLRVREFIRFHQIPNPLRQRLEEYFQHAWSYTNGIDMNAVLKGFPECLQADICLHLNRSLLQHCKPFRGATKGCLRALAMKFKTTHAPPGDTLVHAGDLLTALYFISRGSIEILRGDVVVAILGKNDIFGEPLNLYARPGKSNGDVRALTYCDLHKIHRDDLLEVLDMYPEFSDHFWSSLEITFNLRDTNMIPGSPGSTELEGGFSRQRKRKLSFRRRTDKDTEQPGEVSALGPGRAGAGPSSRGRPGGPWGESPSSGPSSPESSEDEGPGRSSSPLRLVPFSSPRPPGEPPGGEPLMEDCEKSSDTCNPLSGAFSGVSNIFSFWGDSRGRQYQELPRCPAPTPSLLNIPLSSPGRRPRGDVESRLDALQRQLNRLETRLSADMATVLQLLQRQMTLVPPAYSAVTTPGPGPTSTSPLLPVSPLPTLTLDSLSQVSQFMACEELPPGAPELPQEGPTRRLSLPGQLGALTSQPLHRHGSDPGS

| Compound | hERG current change (%, negative = inhibition) at 10uM [%] |
| --- | --- |
| CSc1ccc(CN2CCN(CC=C(C)C)C(CCO)C2)cc1 (stereo not shown) | -46.2 |
| Cc1ccc(C)c(OCCCC(C)(C)C(=O)O)c1 | 8.14 |
| Cc1ccc(CSCCNS(=O)(=O)c2ccc(C)cc2)cc1 | 2.75 |
| CSc1nnc(-c2sccc2OCc2ccc(C)cc2)n1C | -17.4 |
| CCN1CCN(c2ccc(S(=O)(=O)N3CCCCC3)cc2NC(=O)c2cccc(F)c2)CC1 | -34.6 |
| Fc1cc(Br)ccc1COc1ccc(-c2nnco2)cc1 | 17.3 |
| CCCn1nc(NC(=O)CC(C)C)c2cc3cccc(C)c3nc21 | 6.89 |
| COc1ccc(S(=O)(=O)N(C)C)cc1NCC(=O)Nc1cccc(C#N)c1 | 2.34 |
| O=C(O)CCC(=O)N1N=C(c2ccc(Br)cc2)CC1c1ccc(Br)cc1 (stereo not shown) | 20.6 |
| COc1cc(CNC(=O)c2cc3ccccc3oc2=O)cc(OC)c1OC | 5.59 |
| CCOC(=O)C(C)Sc1nc(N2CCOCC2)c2c(c1C#N)CC(C)(C)OC2 (stereo not shown) | -47.9 |
| COCC(C)NC(=O)c1ccc(-n2nc(C(F)(F)F)cc2-c2cccs2)cc1 (stereo not shown) | -32.7 |
| Cc1nn(S(=O)(=O)N2CCOCC2)c(C)c1Br | -0.162 |
| Cc1ccc(S(=O)(=O)Nc2nc(-c3ccc(F)cc3)cs2)cc1 | 5.84 |
| O=C(c1ccc2ccccc2c1)N1CCOCC1 | -18.6 |
| Br.N=c1n(CCc2ccccc2)c2ccccc2n1Cc1ccccc1F | -62.6 |
| CCOC(=O)c1c(C)[nH]c(C(=O)N/N=C\c2ccccc2Cl)c1C | 2.2 |
| Cc1nc2nc(CNC(=O)OC(C)(C)C)nn2c(C)c1CCC(=O)Nc1ccc2c(c1)OCO2 | -13.3 |
| CCCOC(=O)c1ccccc1C(=O)OCCC | -3.24 |
| CCC1(C)Cc2c(sc3nc(SC)[nH]c(=O)c23)CO1 (stereo not shown) | 1.51 |
| COc1cccc(CN2CCN(c3ccc(F)cc3)C2=O)c1 | -21.4 |
| Clc1ccccc1Cn1nnc2c(NCCN3CCOCC3)ncnc21 | -8.27 |
| Cc1ccc(-c2csc3nc[nH]c(=S)c23)cc1C | 27.5 |
| C[C@H](NC(=O)c1nc[nH]c1C(=O)N[C@@H](Cc1ccccc1)C(=O)OC(C)(C)C)c1ccccc1 | 9.61 |
| COc1ccc(CCNC(=O)c2ccc(S(=O)(=O)N(C)c3ccccc3)cc2)cc1OC | -7.94 |
